B1: Antibody 58 (antibody, human IgG1, kappa)
heavy: [sequence of about 100 residues not given]GPPTYHTNYYYMDVWGKGTTVTVSS[sequence of human IgG1 constant region not given]
light: DIQMTQSPSSVSASVGDRVTITCRASQGISSWLAWYQQKPGKAPKLLIYAASSLQSGVPSRFSGSGSGTDFTLTISSLQPEDFATYYCQQTNSFPYTFGGGTKVEIKRTVAAPSVFIFPPSDEQLKSGTASVVCLLNNFYPREAKVQWKVDNALQSGNSQESVTEQDSKDSTYSLSSTLTLSKADYEKHKVYACEVTHQGLSSPVTKSFNRGEC
B2: Antibody 61 (antibody, human IgG1, kappa)
heavy: EVQLLESGGGLVQPGGSLRLSCAASGFTFSSYVMIWVRQAPGKGLEWVSSISGDSVTTYYADSVKGRFTISRDNSKNTLYLQMNSLRAEDTAVYYCAKGPPTYHTNYYYMDVWGKGTTVTVSS[sequence of human IgG1 constant region not given]
light: B1 light

Biological target: human CD117 on CD117 expressing cells (Kasumi-1 cells; primary human CD34+ bone marrow cells) (human), P10721
Assay: cell-based or functional assay

Row | Binder | AUC Kasumi-1 Killing (AUC hIgG1 - AUC MAC ID#); IgG pre-incubated with anti-human Fab-saporin, Celltiter Glo
1 | B1 | 97400
2 | B2 | 78600

Reference: US20190144558A1
